The target of the assay is T1, recombinant human TGF-β1 protein (human, UniProt P01137 in part).
T1 construct: the ELISA and cell assays say only TGF-β1 protein; also called TGF-β1 factor
Briefly: ELISA on coated TGF-β1 according to Example 3.4. (In general: ELISA stands for enzyme-linked immunosorbent assay.)

Here are results for four molecules from patent US20230257469A1 (SINOCELLTECH, published 2023).

T1 sequence (P01137 279-390 limits assumed): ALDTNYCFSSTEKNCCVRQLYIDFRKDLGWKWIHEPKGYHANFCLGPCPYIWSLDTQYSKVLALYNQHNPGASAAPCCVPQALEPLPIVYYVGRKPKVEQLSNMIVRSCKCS

B1: X/TGFβR2 fusion protein 28 (Panitumumab, full length TGFβR2 ECD) (other)
heavy: QVQLQESGPGLVKPSETLSLTCTVSGGSVSSGDYYWTWIRQSPGKGLEWIGHIYYSGNTNYNPSLKSRLTISIDTSKTQFSLKLSSVTAADTAIYYCVRDRVTGAFDIWGQGTMVTVSS[left out - human IgG1 constant region]GGGSGGGGSGGGGSGGGGSIPPHVQKSVNNDMIVTDNNGAVKFPQLCKFCDVRFSTCDNQKSCMSNCSITSICEKPQEVCVAVWRKNDENITLETVCHDPKLPYHDFILEDAASPKCIMKEKKKPGETFFMCSCSSDECNDNIIFSEEYNTSNPD
light: DIQMTQSPAALSASVGDRVTITCQASQDISNYLNWYQQKPGKAPKLLIYDASNLETGVPSRFSGSGSGTDFTFTISSLQPEDIATYFCQHFDHLPLAFGGGTKVEIKRTVAAPSVFIFPPSDEQLKSGTASVVCLLNNFYPREAKVQWKVDNALQSGNSQESVTEQDSKDSTYSLSSTLTLSKADYEKHKVYACEVTHQGLSSPVTKSFNRGEC
notes: Signal peptide of 19 residues left out; limits counted from the printed segments
Turning to B1, the binding result is “binds”.

B2: X/TGFβR2 fusion protein 29 (Panitumumab, ECD delete (6-26)) (other)
heavy: QVQLQESGPGLVKPSETLSLTCTVSGGSVSSGDYYWTWIRQSPGKGLEWIGHIYYSGNTNYNPSLKSRLTISIDTSKTQFSLKLSSVTAADTAIYYCVRDRVTGAFDIWGQGTMVTVSS[left out - human IgG1 constant region]GGGSGGGGSGGGGSGGGGSIPPHVLCKFCDVRFSTCDNQKSCMSNCSITSICEKPQEVCVAVWRKNDENITLETVCHDPKLPYHDFILEDAASPKCIMKEKKKPGETFFMCSCSSDECNDNIIFSEEYNTSNPD
light: DIQMTQSPAALSASVGDRVTITCQASQDISNYLNWYQQKPGKAPKLLIYDASNLETGVPSRFSGSGSGTDFTFTISSLQPEDIATYFCQHFDHLPLAFGGGTKVEIKRTVAAPSVFIFPPSDEQLKSGTASVVCLLNNFYPREAKVQWKVDNALQSGNSQESVTEQDSKDSTYSLSSTLTLSKADYEKHKVYACEVTHQGLSSPVTKSFNRGEC
notes: as for B1
As for B2, the binding result is “binds”.

B3: X/TGFβR2 fusion protein 22 (Bevacizumab, full length TGFβR2 ECD) (other)
heavy: EVQLVESGGGLVQPGGSLRLSCAASGYTFTNYGMNWVRQAPGKGLEWVGWINTYTGEPTYAADFKRRFTFSLDTSKSTAYLQMNSLRAEDTAVYYCAKYPHYYGSSHWYFDVWGQGTLVTVSS[left out - human IgG1 constant region]GGGSGGGGSGGGGSGGGGSIPPHVQKSVNNDMIVTDNNGAVKFPQLCKFCDVRFSTCDNQKSCMSNCSITSICEKPQEVCVAVWRKNDENITLETVCHDPKLPYHDFILEDAASPKCIMKEKKKPGETFFMCSCSSDECNDNIIFSEEYNTSNPD
light: DIQMTQSPSSLSASVGDRVTITCSASQDISNYLNWYQQKPGKAPKVLIYFTSSLHSGVPSRFSGSGSGTDFTLTISSLQPEDFATYYCQQYSTVPWTFGQGTKVEIKRTVAAPSVFIFPPSDEQLKSGTASVVCLLNNFYPREAKVQWKVDNALQSGNSQESVTEQDSKDSTYSLSSTLTLSKADYEKHKVYACEVTHQGLSSPVTKSFNRGEC
notes: as for B1
With B3, the binding result is on record as “binds”.

B4: X/TGFβR2 fusion protein 23 (Bevacizumab, ECD delete (6-26)) (other)
heavy: EVQLVESGGGLVQPGGSLRLSCAASGYTFTNYGMNWVRQAPGKGLEWVGWINTYTGEPTYAADFKRRFTFSLDTSKSTAYLQMNSLRAEDTAVYYCAKYPHYYGSSHWYFDVWGQGTLVTVSS[left out - human IgG1 constant region]GGGSGGGGSGGGGSGGGGSIPPHVLCKFCDVRFSTCDNQKSCMSNCSITSICEKPQEVCVAVWRKNDENITLETVCHDPKLPYHDFILEDAASPKCIMKEKKKPGETFFMCSCSSDECNDNIIFSEEYNTSNPD
light: DIQMTQSPSSLSASVGDRVTITCSASQDISNYLNWYQQKPGKAPKVLIYFTSSLHSGVPSRFSGSGSGTDFTLTISSLQPEDFATYYCQQYSTVPWTFGQGTKVEIKRTVAAPSVFIFPPSDEQLKSGTASVVCLLNNFYPREAKVQWKVDNALQSGNSQESVTEQDSKDSTYSLSSTLTLSKADYEKHKVYACEVTHQGLSSPVTKSFNRGEC
notes: as for B1
Regarding B4, the binding result is reported as “binds”.
